From the supplement of paper PMC8728848
Some of the results follow.

Key:
Assay in all cases: glycan array binding signal (z-score within array); higher = stronger binding
Conditions in all cases: glycan notation: IUPAC condensed, linker removed
[1] = biological target: GalNAc(b1-3)Gal
Outline: (§1)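 From the Consortium for Functional Glycomics database, 3228 arrays were curated, keeping only those whose protein sequence was available. Binding is given as a within-array Z-score averaged across arrays sharing a protein sequence and across linkers. Negative Z-scores can be read as non-binding.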

[2] = biological target: GalNAc(b1-3)Gal(a1-4)Gal(b1-4)GlcNAc
Outline: as §1

[3] = biological target: GalNAc(b1-3)Gal(a1-4)Gal(b1-4)GlcNAc(b1-3)Gal(b1-4)Glc
Outline: as §1

[4] = biological target: GalNAc(b1-3)Gal(a1-6)Gal(b1-4)Glc
Outline: as §1

[5] = biological target: GalNAc(b1-3)GalNAc
Outline: as §1

[6] = biological target: GalNAc(b1-3)GlcNAc
Outline: as §1

[7] = biological target: GalNAc(b1-4)Gal(b1-4)Glc
Outline: as §1

[8] = biological target: GalNAc(b1-4)GlcNAc
Outline: as §1

[9] = biological target: GalNAc(b1-4)GlcNAc(b1-2)Man
Outline: as §1

[10] = biological target: GalNAc(b1-4)GlcNAc(b1-2)Man(a1-3)[GalNAc(b1-4)GlcNAc(b1-2)Man(a1-6)]Man(b1-4)GlcNAc(b1-4)GlcNAc
Outline: as §1

[11] = biological target: GalNAc(b1-4)GlcNAc(b1-3)GalNAc(b1-4)GlcNAc
Outline: as §1

[12] = biological target: GalNAc(b1-4)GlcNAc6S
Outline: as §1

[13] = biological target: GalNAc(b1-6)GalNAc
Outline: as §1

[14] = biological target: GalNAc3S(b1-4)GlcNAc
Outline: as §1

[15] = biological target: GalNAc3S(b1-4)GlcNAc3S
Outline: as §1

[16] = biological target: GalNAc3S(b1-4)[Fuc(a1-3)]GlcNAc
Outline: as §1

[17] = biological target: GalNAc4S6S(b1-4)GlcNAc
Outline: as §1

[18] = biological target: GalNAc6S(b1-4)GlcNAc
Outline: as §1

[19] = biological target: Glc(a1-4)Glc
Outline: as §1

[20] = biological target: Glc(a1-4)Glc(a1-4)Glc(a1-4)Glc
Outline: as §1

[21] = biological target: Glc(a1-6)Glc(a1-6)Glc
Outline: as §1

[22] = biological target: Glc(a1-6)Glc(a1-6)Glc(a1-6)Glc
Outline: as §1

[23] = biological target: Glc(b1-4)Glc
Outline: as §1

[24] = biological target: Glc(b1-6)Glc
Outline: as §1

[25] = biological target: GlcA(b1-3)Gal
Outline: as §1

[26] = biological target: GlcA(b1-3)GlcNAc
Outline: as §1

[27] = biological target: GlcA(b1-6)Gal
Outline: as §1

[28] = biological target: GlcA3S(b1-3)Gal(b1-4)GlcNAc(b1-2)Man
Outline: as §1

[29] = biological target: GlcA3S(b1-3)Gal(b1-4)GlcNAc(b1-3)Gal(b1-4)Glc
Outline: as §1

[30] = biological target: GlcNAc(a1-3)Gal(b1-4)GlcNAc
Outline: as §1

[31] = biological target: GlcNAc(a1-4)Gal(b1-3)GlcNAc
Outline: as §1

[32] = biological target: GlcNAc(a1-4)Gal(b1-4)GalNAc
Outline: as §1

[33] = biological target: GlcNAc(a1-4)Gal(b1-4)GlcNAc
Outline: as §1

[34] = biological target: GlcNAc(a1-4)Gal(b1-4)GlcNAc(b1-3)Gal(b1-4)Glc
Outline: as §1

[35] = biological target: GlcNAc(a1-4)Gal(b1-4)GlcNAc(b1-3)Gal(b1-4)GlcNAc
Outline: as §1

[36] = biological target: GlcNAc(a1-4)Gal(b1-4)GlcNAc(b1-3)Gal(b1-4)GlcNAc(b1-3)Gal(b1-4)GlcNAc
Outline: as §1

[37] = biological target: GlcNAc(a1-4)Gal(b1-4)GlcNAc(b1-3)Gal(b1-4)[Fuc(a1-3)]GlcNAc(b1-3)Gal(b1-4)[Fuc(a1-3)]GlcNAc
Outline: as §1

[38] = biological target: GlcNAc(a1-6)Gal(b1-4)GlcNAc
Outline: as §1

B1: Si Bti9 1b-V5-his (Solanum lycopersicum) (protein)
chain: MQCNRGCDLALASFYVWRGSNLTLISEMFSTSIADIVSYNNRDNIPNQDSVIAGTRINIPFRCDCLNDGEVLGHAFPYRVKSGDTYDLVARNYSDLTTAQWMMKFNSYPENNIPNTVNLSVVVNCSCGNSDVSKDFGLFVTYPVRAEDNLTSVASAANVSEDIIRRYNPAAVSILDIGQGIIYIPGRDRNGNFPPLPTSTDGLSGGAKKGGRADPAFLYKVVINSKLEGKPIPNPLLGLDSTRTGHHHHHH
- glycan array binding signal (z-score) [1]: 0
- glycan array binding signal (z-score) [2]: -0.423
- glycan array binding signal (z-score) [3]: -0.027
- glycan array binding signal (z-score) [4]: -0.348
- glycan array binding signal (z-score) [5]: -0.28
- glycan array binding signal (z-score) [6]: -0.361
- glycan array binding signal (z-score) [7]: 0.254
- glycan array binding signal (z-score) [8]: -0.018
- glycan array binding signal (z-score) [9]: -0.416
- glycan array binding signal (z-score) [10]: 0.095
- glycan array binding signal (z-score) [11]: 0.051
- glycan array binding signal (z-score) [12]: 0.056
- glycan array binding signal (z-score) [13]: -0.204
- glycan array binding signal (z-score) [14]: -0.394
- glycan array binding signal (z-score) [15]: -0.324
- glycan array binding signal (z-score) [16]: 4.72
- glycan array binding signal (z-score) [17]: -0.18
- glycan array binding signal (z-score) [18]: -0.261
- glycan array binding signal (z-score) [19]: -0.263
- glycan array binding signal (z-score) [20]: -0.197
- glycan array binding signal (z-score) [21]: -0.279
- glycan array binding signal (z-score) [22]: -0.061
- glycan array binding signal (z-score) [23]: -0.113
- glycan array binding signal (z-score) [24]: 0.033
- glycan array binding signal (z-score) [25]: -0.45
- glycan array binding signal (z-score) [26]: -0.343
- glycan array binding signal (z-score) [27]: -0.125
- glycan array binding signal (z-score) [28]: -0.169
- glycan array binding signal (z-score) [29]: -0.256
- glycan array binding signal (z-score) [30]: -0.238
- glycan array binding signal (z-score) [31]: -0.178
- glycan array binding signal (z-score) [32]: -0.238
- glycan array binding signal (z-score) [33]: -0.243
- glycan array binding signal (z-score) [34]: -0.226
- glycan array binding signal (z-score) [35]: -0.108
- glycan array binding signal (z-score) [36]: -0.338
- glycan array binding signal (z-score) [37]: 0.18
- glycan array binding signal (z-score) [38]: -0.138
